These results are taken from article PMC7819943, “Rice protein-binding microarrays: a tool to detect cis-acting elements near promoter regions in rice”.

The list shows a part of the results.

The target of the test is T1, OsWOX13 (Oryza sativa, UniProt Q5QMM3 1-267).
T1 sequence: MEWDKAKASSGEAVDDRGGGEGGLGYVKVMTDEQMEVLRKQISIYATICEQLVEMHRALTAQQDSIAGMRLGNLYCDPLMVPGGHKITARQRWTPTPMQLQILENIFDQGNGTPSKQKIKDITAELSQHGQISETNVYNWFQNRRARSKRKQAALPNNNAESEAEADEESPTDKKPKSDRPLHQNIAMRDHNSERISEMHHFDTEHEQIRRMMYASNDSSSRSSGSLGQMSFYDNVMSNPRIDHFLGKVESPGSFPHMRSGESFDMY
As to the kind of experiment: protein-binding microarray (RPBM); PBS, 2% BSA, 51.3 ng/ul salmon testes DNA, 50 uM zinc acetate, 200 nM TF, 25 C, 1 h; high values mean tight binding. To be noted: protein: recombinant; tags: N-terminal polyhistidine and DsRed monomer fusion (pET32a); label: CyDye5-dUTP incorporated in the synthesized complementary strand; 3' TTTTT single-stranded linker to array surface; dsDNA, one strand shown. The procedure, abridged:
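A custom Agilent array was converted to double-stranded form by primer extension with Cy5-dUTP and blocked with 2% BSA. Protein at 200 nM in PBS with 2% BSA, salmon testes DNA and 50 µM zinc acetate was applied for 1 h at 25 °C, followed by washing. The proteins were polyhistidine–DsRed N-terminal fusions of transcription factors, expressed in E. coli BL21-CodonPlus and Ni–NTA-purified. The binding signal is per-feature fluorescence intensity (arbitrary units) from an Axon 4000B scanner.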
Consider “ATAAATTACATAAACAATATGTAAATCAAGTGATTACATTCGGAGTCACCTAGTGCAG”, for which the binding signal was 20900 fluorescence intensity (a.u.).
Consider “ACGACCTCCATTGATTAACTACGTGCGTGTGAGAAACTAACGGAGTCACCTAGTGCAG”, for which the binding signal was 3720 fluorescence intensity (a.u.).
“CTGCGCATATCTTAAGATTGATAAAGCCATTATGGGCGTCCGGAGTCACCTAGTGCAG”: the binding signal is 4120 fluorescence intensity (a.u.).
On to “CAAACACCTCCTGTTTTGATTGGTGATGCACACTAACAAGCGGAGTCACCTAGTGCAG”, for which the binding signal was 5020 fluorescence intensity (a.u.).
On to “AAGTTATATATATTGATGATTTATACAACTTTGTTGGTGACGGAGTCACCTAGTGCAG”, for which the binding signal is 3620 fluorescence intensity (a.u.).
The figure for “GCAGCACAGCTTAATCAATTACCCTTGCATCGACCATAGCCGGAGTCACCTAGTGCAG” is 3300 fluorescence intensity (a.u.).
“ATTACATAGATTACGTGTAAAATTGTGAGACGAATCTTTTCGGAGTCACCTAGTGCAG”: the binding signal was 4690 fluorescence intensity (a.u.).
For “TTATAATTTATTTTGTTATGGATTGTTTTATCGTTCATAGCGGAGTCACCTAGTGCAG”, the binding signal is 29900 fluorescence intensity (a.u.).
For the sequence “GCGATATCCATTGATTGAAAATTCTGCAAGATTCAAATATCGGAGTCACCTAGTGCAG”, the binding signal is 20800 fluorescence intensity (a.u.).
In the case of “ATTAACCATAATTAACGATGTAATTAACGGTCGAGTTGCACGGAGTCACCTAGTGCAG”, the binding signal was 48800 fluorescence intensity (a.u.).
The figure for “CCTGCTAATCGTAAATTATTTTCTGAAATATTAGTATCAACGGAGTCACCTAGTGCAG” is 8670 fluorescence intensity (a.u.); for “CATTTTGATTTGTTGCCACGTTCAACCCGATAACATGTATCGGAGTCACCTAGTGCAG” it is 34500 fluorescence intensity (a.u.); for “ACCTCTTTTAACATCTAATCAAACGTCTAATGTAACTCCTCGGAGTCACCTAGTGCAG” it is 6570 fluorescence intensity (a.u.).
Regarding “CTGCAATAATTGGGCATATCTTGGCGCACGCATCAGCAATCGGAGTCACCTAGTGCAG”, the binding signal is 13700 fluorescence intensity (a.u.).
Take “TTTTAATTAGTATATGTTTAATACACTAAATTAGTGTCCACGGAGTCACCTAGTGCAG”: the binding signal is 47800 fluorescence intensity (a.u.).
Regarding “CTTGACTAGGGACTCATACGTAATCATGGTTACAAGGATTCGGAGTCACCTAGTGCAG”, the binding signal was 3400 fluorescence intensity (a.u.).
In the case of “TCGTGAACTCATGATTAGGAGGGAGAAGACACTGGTAGAGCGGAGTCACCTAGTGCAG”, the binding signal is 3220 fluorescence intensity (a.u.).
In the case of “TCCAATTAATGGCCACAGCAAGATAGACACCTAAGATAAACGGAGTCACCTAGTGCAG”, the binding signal was 5860 fluorescence intensity (a.u.).
On to “AATTACATAGGTTAATTAAATAATTAATTACTGCCACTACCGGAGTCACCTAGTGCAG”, for which the binding signal was 36500 fluorescence intensity (a.u.).
Take “CATTAACTACATCCAGTTATCAGCCCTGTCGTTTCTCTGCCGGAGTCACCTAGTGCAG”: the binding signal is 3750 fluorescence intensity (a.u.).
Consider “CTCAACACGAAAATCACCATTTAATTAGTGGAATAAGTTCCGGAGTCACCTAGTGCAG”, for which the binding signal is 4740 fluorescence intensity (a.u.).
“AGAAACAATCTAATTGGGTCATTGTGATGCAATTATTTATCGGAGTCACCTAGTGCAG”: the binding signal was 4700 fluorescence intensity (a.u.).
In the case of “AACCTGTTGAAAATTATTAATTTTGAAAGCTTCTACTCTTCGGAGTCACCTAGTGCAG”, the binding signal was 5900 fluorescence intensity (a.u.).
Take “GCCCATTAATTTTAGTCGGTGTGGCTGGTTTGTTCACTGACGGAGTCACCTAGTGCAG”: the binding signal is 3670 fluorescence intensity (a.u.).
As to “ACCGTTGACTGGAACTCGTACGGATACAGCGGGTAGTTGCCGGAGTCACCTAGTGCAG”, the binding signal was 16500 fluorescence intensity (a.u.).
With “ACCAAATTAATATCATCAAATCAAATGTTAAATATATTTGCGGAGTCACCTAGTGCAG”, the binding signal was 19200 fluorescence intensity (a.u.).
Under “TTTTAATTTGTTTGGATTAAGCCAAGTGACAATCTAAAATCGGAGTCACCTAGTGCAG” stands 13500 fluorescence intensity (a.u.).
The figure for “ATACTTGATTTAAAATGAAAACATAGACAAATGTATGGTACGGAGTCACCTAGTGCAG” is 23800 fluorescence intensity (a.u.).
With “GCTATATTTAATTAACCATGTCTTAATCCGTCACTCTGTTCGGAGTCACCTAGTGCAG”, the binding signal is 14000 fluorescence intensity (a.u.).
Take “AAGAAAATTGGTAGATCTTAACGAGTTCTACAACTTTATTCGGAGTCACCTAGTGCAG”: the binding signal was 4040 fluorescence intensity (a.u.).
Under “TTTGAATTTACATATGTAATTTTAGTACTTACATATGTAACGGAGTCACCTAGTGCAG” stands 4290 fluorescence intensity (a.u.); under “GTTAGGGGATGATTTTGTAACTAGATGACAAGTTGAGGGACGGAGTCACCTAGTGCAG”, 7730 fluorescence intensity (a.u.).
Consider “TTGGGATTTGTTGATTGTAGTGTTAAATGTGTGCAATGTGCGGAGTCACCTAGTGCAG”, for which the binding signal was 14800 fluorescence intensity (a.u.).
Regarding “TGAAATTTCAGTTTAAGAATTTATACACTGATAATCCAAACGGAGTCACCTAGTGCAG”, the binding signal is 6370 fluorescence intensity (a.u.).
Take “GCTGATCGCCAATCACTTGCCTTAGATGATTCTGCAATATCGGAGTCACCTAGTGCAG”: the binding signal was 24000 fluorescence intensity (a.u.).
As to “AAATTGATAATAATAGAGGGATAGCTGTTCTGAGGCTATACGGAGTCACCTAGTGCAG”, the binding signal was 4170 fluorescence intensity (a.u.).
“TCGAGATGGATAATTAGATTGATTGATTGGCCGATAGCCCCGGAGTCACCTAGTGCAG”: the binding signal is 65100 fluorescence intensity (a.u.).
On to “TGTTTGTAATTTGAGAAAATTTGAGGGATCATTCTGCATTCGGAGTCACCTAGTGCAG”, for which the binding signal is 11700 fluorescence intensity (a.u.).
The figure for “TTTCATGTAAATTAACACGAGCCTGAATCCTCCGTTGAAGCGGAGTCACCTAGTGCAG” is 3750 fluorescence intensity (a.u.); for “ACGTTAATTTTCGCAGCATTACGGTATTTATAATCAGGCCCGGAGTCACCTAGTGCAG” it is 12700 fluorescence intensity (a.u.).
Under “ATTCGTGTCCATTAATTATATTTCGATAAAATCCGTTTTCCGGAGTCACCTAGTGCAG” stands 7940 fluorescence intensity (a.u.); under “CACAAATTTAACCTCAGCTTCAGCTTCATCACTGCCAAATCGGAGTCACCTAGTGCAG”, 4400 fluorescence intensity (a.u.).
